The whole screen tested about 310,000 compounds, of which about 2,200 (0.71%) showed an effect of 50% or more. The effect is printed as a negative number. Some of the results follow.
Each molecule was assayed against human ether-à-go-go-related gene (hERG) potassium channel (human, UniProt Q12809) (assay: primary screen, population patch clamp on CHO cells stably expressing hERG).
Chain of human ether-à-go-go-related gene (hERG) potassium channel (Q12809 whole entry, looked up): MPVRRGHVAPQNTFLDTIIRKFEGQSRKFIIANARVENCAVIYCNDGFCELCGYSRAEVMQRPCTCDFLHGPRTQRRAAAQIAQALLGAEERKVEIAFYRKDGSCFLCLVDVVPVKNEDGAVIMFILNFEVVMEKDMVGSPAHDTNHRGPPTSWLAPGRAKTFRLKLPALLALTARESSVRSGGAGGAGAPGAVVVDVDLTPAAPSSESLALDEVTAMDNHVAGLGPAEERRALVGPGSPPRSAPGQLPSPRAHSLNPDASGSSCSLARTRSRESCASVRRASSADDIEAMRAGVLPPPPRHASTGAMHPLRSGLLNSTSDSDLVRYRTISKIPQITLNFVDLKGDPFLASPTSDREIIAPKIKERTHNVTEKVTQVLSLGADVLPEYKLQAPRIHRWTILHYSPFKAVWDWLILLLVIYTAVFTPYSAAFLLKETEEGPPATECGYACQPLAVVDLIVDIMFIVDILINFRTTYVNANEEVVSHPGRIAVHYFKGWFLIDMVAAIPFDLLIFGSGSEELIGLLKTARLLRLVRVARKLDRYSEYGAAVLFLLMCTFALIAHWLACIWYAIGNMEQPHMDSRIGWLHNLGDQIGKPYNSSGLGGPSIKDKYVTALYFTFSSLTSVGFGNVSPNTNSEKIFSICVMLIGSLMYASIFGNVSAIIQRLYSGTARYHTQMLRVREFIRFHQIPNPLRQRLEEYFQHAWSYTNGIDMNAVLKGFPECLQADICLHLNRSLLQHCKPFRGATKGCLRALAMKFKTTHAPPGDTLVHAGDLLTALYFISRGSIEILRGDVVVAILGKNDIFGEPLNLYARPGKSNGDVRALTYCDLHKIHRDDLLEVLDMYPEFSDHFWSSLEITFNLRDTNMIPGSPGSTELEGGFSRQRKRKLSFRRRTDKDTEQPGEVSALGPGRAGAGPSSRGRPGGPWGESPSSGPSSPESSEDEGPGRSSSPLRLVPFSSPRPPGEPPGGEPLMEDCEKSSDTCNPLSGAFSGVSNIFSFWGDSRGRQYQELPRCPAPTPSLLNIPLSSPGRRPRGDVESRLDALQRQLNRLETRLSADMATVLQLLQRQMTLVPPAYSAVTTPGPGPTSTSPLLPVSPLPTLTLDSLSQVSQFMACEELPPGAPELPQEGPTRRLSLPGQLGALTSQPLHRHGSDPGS

Row | SMILES | hERG current change (%, negative = inhibition) at 1uM [%]
1 | O=C(c1cccs1)N1CCCc2ccccc21 | -10.4
2 | CCn1c(=O)n(CC)c2cc(S(=O)(=O)Nc3ccccc3C)c(C)cc21 | 11
3 | C/C(=N\NC(=O)c1cc2ccccc2cc1O)c1ccc(C)o1 | 10.6
4 | COc1ccc2[nH]c(=O)c(CN(Cc3ccco3)C(c3nnnn3Cc3ccccc3)C(C)C)cc2c1 (stereo not shown) | 5.65
5 | CCC1(CC)NC(=O)N(CC(=O)NC(=O)NCc2ccccc2)C1=O | 14.7
6 | CC(Sc1ccccc1)C(=O)Nc1ccc(N2CCOCC2)cc1 (stereo not shown) | 3.78
7 | O=C(CSCc1ccc(Cl)c(Cl)c1)Nc1c[nH]c(=O)[nH]c1=O | 20
8 | COc1ccc(C2C(C(N)=O)=C(C)Nc3nc(-c4cccc(Cl)c4)nn32)cc1OC (stereo not shown) | 7.76
9 | COc1ccc(C2=CC(c3cccc(OC)c3)n3nnnc3N2)cc1 (stereo not shown) | 13.9
10 | O=C(CCSc1nnc2scc(-c3ccccc3)n12)Nc1nc(-c2ccccc2)ns1 | 8.51
11 | O=C(CCC(=O)c1ccc(F)cc1)Nc1cccnc1 | 12.8
12 | O=C(NCc1ccco1)c1cc(-c2ccccc2)nc2ccccc12 | 8.77
13 | N/C(=N\c1nc(C(F)(F)F)cc(=O)[nH]1)Nc1ccc(Cl)cc1 | 0.337
14 | Cc1ccccc1Cn1c(=O)sc2ccccc2c1=O | 11.3
15 | CCN(CC)C(=O)CS(=O)(=O)CC(=O)Nc1cc(OCCOC)c(Cl)cc1Cl | 9.99
16 | COc1ccc(C(O)c2nccn2Cc2ccccc2)cc1 (stereo not shown) | 9.44
17 | CSc1ccc(/C=C/C(=O)OCC(=O)NC2CCS(=O)(=O)C2)cc1 (stereo not shown) | 8.73
18 | CC(C)(C)C(=O)Nc1ccccc1C(=O)Nc1ccncc1 | 14.1
19 | Cc1c(NC2(C#N)CCCCC2)c(=O)n(-c2ccccc2)n1C | 14.3
20 | CCOc1cc2[nH]c(=O)n(Cc3ccc(C(=O)NCCCN4CCCC4=O)cc3)c(=O)c2cc1OCC | 16.9
21 | CCc1nnc(NC(=O)C2CCN(C(=O)NC3CCCCC3)CC2)s1 | 3.69
22 | O=C(NNS(=O)(=O)c1ccccc1)c1ccc([N+](=O)[O-])cc1 | 12.7

Row | SMILES | hERG current change (%, negative = inhibition) at 1uM [%]
23 | Cc1ccc(C(=O)CSc2nnc3c4ccccc4nc(C(C)(C)C)n23)cc1 | 12.2
24 | O=C(N/N=C/c1cccc2nccnc12)c1ccccc1O | 15.1
25 | O=C(O)c1ccc(/C=C2\CCCc3c2nc2ccccc2c3C(=O)O)cc1 | 16.4
26 | CCN(C(=O)COC(=O)Cc1coc2cc(C)ccc12)c1c(N)n(Cc2ccccc2)c(=O)[nH]c1=O | 11.2
27 | CC1(C)C(=O)OC(/C=C/c2cccc([N+](=O)[O-])c2)C(C)(C)C1=O (stereo not shown) | 16
28 | CCc1ccc(C2C(C#N)=C(N)Oc3n[nH]c(CC(=O)OC)c32)cc1 (stereo not shown) | 9.77
29 | CCn1c(SCC(=O)c2ccc3ccccc3c2)nnc1-c1ccco1 | 11
30 | CC(=O)c1ccc(N(CC(=O)NCC2CCCO2)C(=O)CCC(=O)Nc2cc(C)on2)cc1 (stereo not shown) | 18.8
31 | COC(=O)c1[nH]c2cc(C)ccc2c1NC(=O)CN1CCCc2ccccc21 | 8.77
32 | CCOC(=O)Cc1csc(NC(=O)c2ccc(S(=O)(=O)N(CCOC)CCOC)cc2)n1 | 5.39
33 | Cc1ccc(S(=O)(=O)c2ccc(Cl)cc2)cc1S(N)(=O)=O | 12.7
34 | Cc1ccc(NC(=O)C(OC(=O)c2ccc(NC(N)=O)cc2)c2ccccc2)cc1Cl (stereo not shown) | 1.35
35 | CC1C(C#N)=C(N)OC2=C1C(=O)CC(C)(C)C2 (stereo not shown) | 1.44
36 | CCCCCOC(=O)CCN1C(=O)/C(=C2\SC(=S)N(CCC(=O)OCCCCC)C2=O)SC1=S | 11.6
37 | CC(=O)c1sc(NC(=O)C=C(C)C)nc1C | 10.7
38 | CN(CC(=O)NCc1ccncc1)S(=O)(=O)c1ccccc1 | 0.0167
39 | Nc1c(C(=O)Nc2ccc(F)cc2)sc(=S)n1-c1ccccc1F | 9.98
40 | COc1ccc2c(c1)c(N=NC(N)=S)c(O)n2CC(=O)c1ccccc1 | 9.64
41 | CC1=CC(=O)c2ccccc2C1=O | 4.13
42 | Cc1cc2nc3ccc(N(C)C)cc3nc2cc1N | 13.3
43 | COc1cc(NS(=O)(=O)c2ccc(NC(=S)NC(=O)/C=C/c3ccc(OC)c(OC)c3)cc2)ncn1 | 9.81

— PMC4336329 (PLoS ONE, 2015)
